Laboratory results as given in the supplement of paper PMC11741623.
Some of the results follow. Interaction screen of human proteins with wild-type SARS-CoV-2 proteins by split-DHFR complementation in yeast, 1 µg/mL methotrexate. Value = fitness of the pair (three or more lineages) minus that of the viral protein without a human partner, on a scale set by negative (0) and fused positive (1) controls, mean of up to three cultures; higher = more likely to interact. Active = false discovery rate below 0.05 (one-sided t-test) in at least one culture. Nearly all pairs are not hits, and differences among them are mostly noise (correlation between cultures about 0.3); most hits were seen in one culture only. Human sequences are the Swiss-Prot entries looked up by gene name; the clone may be another isoform. NSP2 values were corrected by the authors for a growth advantage. Listed are human proteins with a hit and a random twelfth of the others.

B1: SCRG1, O75711 (protein)
chain: MKLMVLVFTIGLTLLLGVQAMPANRLSCYRKILKDHNCHNLPEGVADLTQIDVNVQDHFWDGKGCEMICYCNFSELLCCPKDVFFGPKISFVIPCNNQ
B2: LURAP1, Q96LR2 (protein)
chain: MEGTVESQTPDLRDVEGKVGRKTPEGLLRGLRGECELGTSGALLLPGASSTGHDLGDKIMALKMELAYLRAIDVKILQQLVTLNEGIEAVRWLLEERGTLTSHCSSLTSSQYSLTGGSPGRSRRGSWDSLPDTSTTDRLDSVSIGSFLDTVAPSELDEQGPPGAPRSEMDWAKVIAGGERARTEVDVAATRLGSLRAVWKPPGERLQGGPPESPEDESAKLGFEAHWFWEQCQDDVTFL
B3: SNAP29, O95721 (protein)
chain: MSAYPKSYNPFDDDGEDEGARPAPWRDARDLPDGPDAPADRQQYLRQEVLRRAEATAASTSRSLALMYESEKVGVASSEELARQRGVLERTEKMVDKMDQDLKISQKHINSIKSVFGGLVNYFKSKPVETPPEQNGTLTSQPNNRLKEAISTSKEQEAKYQASHPNLRKLDDTDPVPRGAGSAMSTDAYPKNPHLRAYHQKIDSNLDELSMGLGRLKDIALGMQTEIEEQDDILDRLTTKVDKLDVNIKSTERKVRQL
B4: ORMDL1, Q9P0S3 (protein)
chain: MNVGVAHSEVNPNTRVMNSRGMWLTYALGVGLLHIVLLSIPFFSVPVAWTLTNIIHNLGMYVFLHAVKGTPFETPDQGKARLLTHWEQLDYGVQFTSSRKFFTISPIILYFLASFYTKYDPTHFILNTASLLSVLIPKMPQLHGVRIFGINKY

Target: SARS-CoV-2 M
Assay: yeast fitness gain over the viral ORF with no human partner (scaled fitness); higher = more likely to interact
Description: (§1)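 Split mouse DHFR complementation in pooled diploid yeast: human ORFeome clones carry one fragment and viral ORFs the other; barcoded lineages compete in 1 µg/mL methotrexate and fitness is read by barcode sequencing in up to three cultures.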

Row | Binder | yeast fitness gain
1 | B1 | inactive: 0.078
2 | B2 | inactive: 0.0116
3 | B3 | inactive: -0.0078
4 | B4 | inactive: 0.232

Target: SARS-CoV-2 N
Assay: as above
Description: as §1

Row | Binder | yeast fitness gain
5 | B1 | inactive: -0.0685
6 | B2 | inactive: 0.0655
7 | B3 | inactive: 0.104
8 | B4 | inactive: -0.222

Target: SARS-CoV-2 NSP1
Assay: as above
Description: as §1

Row | Binder | yeast fitness gain
9 | B1 | inactive: 0.0184
10 | B2 | inactive: -0.0206
11 | B4 | inactive: -0.0382

Target: SARS-CoV-2 NSP10
Assay: as above
Description: as §1

Row | Binder | yeast fitness gain
12 | B1 | inactive: 0.0104
13 | B2 | inactive: -0.0403
14 | B3 | inactive: -0.0195
15 | B4 | inactive: -0.0329

Target: SARS-CoV-2 NSP12
Assay: as above
Description: as §1

Row | Binder | yeast fitness gain
16 | B1 | inactive: 0.0183
17 | B2 | inactive: 0.0514
18 | B3 | inactive: 0.0587
19 | B4 | inactive: -0.205

Target: SARS-CoV-2 NSP13
Assay: as above
Description: as §1

Row | Binder | yeast fitness gain
20 | B1 | inactive: -0.0526
21 | B2 | inactive: -0.00433
22 | B3 | inactive: 0.0371
23 | B4 | inactive: -0.131

Target: SARS-CoV-2 NSP14
Assay: as above
Description: as §1

Row | Binder | yeast fitness gain
24 | B1 | inactive: 0.0432
25 | B3 | inactive: 0.0769
26 | B4 | inactive: 0.0413

Target: SARS-CoV-2 NSP15
Assay: as above
Description: as §1

Row | Binder | yeast fitness gain
27 | B1 | inactive: 0.034
28 | B3 | inactive: -0.0285
29 | B4 | inactive: -0.00814

Target: SARS-CoV-2 NSP16
Assay: as above
Description: as §1

Row | Binder | yeast fitness gain
30 | B1 | inactive: -0.0314
31 | B2 | inactive: -0.035
32 | B3 | inactive: 0.116
33 | B4 | inactive: 0.0553

Target: SARS-CoV-2 NSP2
Assay: as above
Description: as §1

Row | Binder | yeast fitness gain
34 | B1 | inactive: -0.0741
35 | B2 | inactive: -0.089
36 | B3 | inactive: -0.107
37 | B4 | inactive: -0.529

Target: SARS-CoV-2 NSP4
Assay: as above
Description: as §1

Row | Binder | yeast fitness gain
38 | B1 | inactive: 0.0207
39 | B3 | inactive: 0.0434
40 | B4 | active: 0.96

Target: SARS-CoV-2 NSP5
Assay: as above
Description: as §1

Row | Binder | yeast fitness gain
41 | B1 | inactive: -0.0937
42 | B2 | inactive: 0.0973
43 | B3 | inactive: 0.0107
44 | B4 | inactive: -0.182

Target: SARS-CoV-2 NSP6
Assay: as above
Description: as §1

Row | Binder | yeast fitness gain
45 | B1 | inactive: -0.0607
46 | B2 | inactive: 0.0143
47 | B3 | inactive: 0.00632
48 | B4 | inactive: 0.0795

Target: SARS-CoV-2 NSP7
Assay: as above
Description: as §1

Row | Binder | yeast fitness gain
49 | B1 | inactive: -0.0484
50 | B2 | inactive: 0.00338
51 | B3 | inactive: 0.00799
52 | B4 | inactive: 0.0123

Target: SARS-CoV-2 NSP8
Assay: as above
Description: as §1

Row | Binder | yeast fitness gain
53 | B1 | inactive: -0.103
54 | B2 | inactive: 0.0641
55 | B3 | inactive: 0.131
56 | B4 | inactive: -0.431

Target: SARS-CoV-2 NSP9
Assay: as above
Description: as §1

Row | Binder | yeast fitness gain
57 | B1 | inactive: -0.214
58 | B2 | inactive: 0.0819
59 | B3 | inactive: 0.0698
60 | B4 | inactive: 0.0286

Target: SARS-CoV-2 ORF10
Assay: as above
Description: as §1

Row | Binder | yeast fitness gain
61 | B1 | inactive: 0.052
62 | B2 | inactive: 0.00367
63 | B3 | inactive: -0.114
64 | B4 | inactive: -0.0351

Target: SARS-CoV-2 ORF3A
Assay: as above
Description: as §1

Row | Binder | yeast fitness gain
65 | B1 | inactive: 0.058
66 | B2 | inactive: -0.0488
67 | B3 | inactive: -0.0295
68 | B4 | inactive: 0.329

Target: SARS-CoV-2 ORF3B
Assay: as above
Description: as §1

Row | Binder | yeast fitness gain
69 | B1 | inactive: 0.0491
70 | B2 | inactive: -0.0118
71 | B3 | inactive: 0.0508
72 | B4 | inactive: -0.0621

Target: SARS-CoV-2 ORF6
Assay: as above
Description: as §1

Row | Binder | yeast fitness gain
73 | B1 | inactive: -0.0282
74 | B2 | inactive: -0.0156
75 | B3 | inactive: 0.0375
76 | B4 | inactive: -0.0541

Target: SARS-CoV-2 ORF7A
Assay: as above
Description: as §1

Row | Binder | yeast fitness gain
77 | B1 | inactive: 0.0462
78 | B2 | inactive: 0.00222
79 | B3 | inactive: -0.0335
80 | B4 | inactive: 0.624

Target: SARS-CoV-2 ORF7B
Assay: as above
Description: as §1

Row | Binder | yeast fitness gain
81 | B1 | inactive: -0.0618
82 | B2 | inactive: -0.0669
83 | B3 | inactive: -0.00372
84 | B4 | inactive: 0.379

Target: SARS-CoV-2 ORF8
Assay: as above
Description: as §1

Row | Binder | yeast fitness gain
85 | B1 | inactive: -0.0284
86 | B2 | inactive: 0.0315
87 | B3 | inactive: -0.000652
88 | B4 | inactive: -0.0453

Target: SARS-CoV-2 ORF9B
Assay: as above
Description: as §1

Row | Binder | yeast fitness gain
89 | B1 | inactive: 0.0103
90 | B2 | inactive: -0.0477
91 | B3 | inactive: 0.0116
92 | B4 | inactive: -0.0735

Target: SARS-CoV-2 ORF9Bwu (the 73-codon ORF)
Assay: as above
Description: as §1

Row | Binder | yeast fitness gain
93 | B1 | inactive: -0.018
94 | B2 | inactive: -0.149
95 | B3 | inactive: 0.0878
96 | B4 | inactive: 0.0722

Target: SARS-CoV-2 S
Assay: as above
Description: as §1

Row | Binder | yeast fitness gain
97 | B1 | inactive: -0.00962
98 | B2 | inactive: -0.159
99 | B3 | inactive: 0.055
100 | B4 | inactive: -0.109
